Assay results from patent publication US7923465B2, “Cannabinoid receptor ligands, pharmaceutical compositions containing them, and process for their preparation” (priority 2005, dated 2011).
The name of at least one read-out is uncertain.

What follows are molecules tested against hCB1 (Homo sapiens, UniProt P21554) (assay: In vitro binding assay using hCB1-CHO membranes, [3H]-CP-55,940 displacement (Protocol II)). Conditions: [3H]-CP-55,940 displacement.
Set-up: expressed in transfected cells; host or cells: CHO (hCB1-CHO, generated in-house)
Description: II. Protocol for In Vitro Assay Using hCB1-CHO Membranes
The reaction was set up in a total volume of 200 μl in PEI (Poly(ethyleneimine)) (0.2%) precoated Millipore GFB (Glass Fibre-B) filter plates. 1 mM stocks of test compounds were prepared in DMSO and tested at a final concentration of 300 nM. The non-specific binding was determined by 0.5 μM CP-55, 940. […] The assay mixture (with or without the test compound) was incubated at 37° C. for 1 hour. The reaction was stopped by rapid filtration under vacuum and the radioactivity on the filters was measured by liquid scintillation counting.

UniProt P21554, sequence (P21554 whole entry): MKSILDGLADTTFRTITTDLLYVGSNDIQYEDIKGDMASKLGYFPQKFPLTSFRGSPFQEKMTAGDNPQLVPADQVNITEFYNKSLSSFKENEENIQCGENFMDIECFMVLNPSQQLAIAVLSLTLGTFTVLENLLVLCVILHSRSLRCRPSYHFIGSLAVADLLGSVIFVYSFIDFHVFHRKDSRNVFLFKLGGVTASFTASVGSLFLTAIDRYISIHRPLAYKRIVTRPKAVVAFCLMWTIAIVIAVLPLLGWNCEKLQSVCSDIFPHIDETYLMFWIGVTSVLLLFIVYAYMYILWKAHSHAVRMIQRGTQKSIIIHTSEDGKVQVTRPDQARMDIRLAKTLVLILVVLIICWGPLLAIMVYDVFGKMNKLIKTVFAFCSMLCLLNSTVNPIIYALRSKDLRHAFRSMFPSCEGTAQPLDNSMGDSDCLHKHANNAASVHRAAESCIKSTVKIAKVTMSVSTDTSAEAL

Compared with `O=C(NCc1ccccc1)c1nn(-c2ccccc2Br)c2c1C1CC3CC(C1)CC2C3` [Example 102, N(7)-Benzyl-5-(2-bromophenyl)-5,6-diazatetracyclo[7.3.1.1^3,11.0^4,8]tetradeca-4(8),6-diene-7-carboxamide], `O=C(NCc1cccnc1)c1nn(-c2ccc(Cl)cc2)c2c1C1CC3CC(C1)CC2C3` [Example 104, N(7)-(3-Pyridylmethyl)-5-(4-chlorophenyl)-5,6-diazatetracyclo[7.3.1.1^3,11.0^4,8]tetradeca-4(8),6-diene-7-carboxamide] is lower in “% Displacement Protocol II” value: 18.56% for the first, 5.41% for the second.

Going from `O=C(NN1CCOCC1)c1nn(-c2ccc(Cl)cc2)c2c1C1CC3CC(C1)CC2C3` [Example 103, N(7)-Morpholino-5-(4-chlorophenyl)-5,6-diazatetracyclo[7.3.1.1^3,11.0^4,8]tetradeca-4(8),6-diene-7-carboxamide] to `Cc1ccc(-n2nc(C(=O)NN3CCCCC3)c3c2C2CC4CC(CC3C4)C2)cc1` [Example 160, N(7)-Piperidino-5-(4-methylphenyl)-5,6-diazatetracyclo[7.3.1.1^3,11.0^4,8]tetradeca-4(8),6-diene-7-carboxamide], the “% Displacement Protocol II” value rises from 0% to 7.32%.

Going from `O=C(NCc1ccncc1)c1nn(-c2ccc(Cl)cc2)c2c1C1CC3CC(C1)CC2C3` [Example 105, N(7)-(4-Pyridylmethyl)-5-(4-chlorophenyl)-5,6-diazatetracyclo[7.3.1.1^3,11.0^4,8]tetradeca-4(8),6-diene-7-carboxamide] to `O=C(NCc1ccccn1)c1nn(-c2ccc(Cl)cc2)c2c1C1CC3CC(C1)CC2C3` [Example 120, N(7)-(2-Pyridylmethyl)-5-(4-chlorophenyl)-5,6-diazatetracyclo[7.3.1.1^3,11.0^4,8]tetradeca-4(8),6-diene-7-carboxamide], the “% Displacement Protocol II” value rises from 15.03% to 15.43%.

First: O=C(NCC1CCCCC1)c1nn(-c2ccc(Cl)cc2)c2c1C1CC3CC(C1)CC2C3 [Example 108, N(7)-Cyclohexylmethyl-5-(4-chlorophenyl)-5,6-diazatetracyclo[7.3.1.1^3,11.0^4,8]tetradeca-4(8),6-diene-7-carboxamide]
Second: O=C(NN(c1ccc(Cl)cc1Cl)C1CCCCC1)c1nn(-c2ccc(Cl)cc2)c2c1C1CC3CC(C1)CC2C3 [Example 129, N(7)-(2,4-Dichlorophenyl-N′-cyclohexylamino)-5-(4-chlorophenyl)-5,6-diazatetracyclo[7.3.1.1^3,11.0^4,8]tetradeca-4(8),6-diene-7-carboxamide]
The “% Displacement Protocol II” value of the first is higher: 23.19% for the first, 19.78% for the second.

Compared with `O=C(NCc1ccccc1Cl)c1nn(-c2ccc(Cl)cc2)c2c1C1CC3CC(C1)CC2C3` [Example 111, N(7)-(2-Chlorobenzyl)-5-(4-chlorophenyl)-5,6-diazatetracyclo[7.3.1.1^3,11.0^4,8]tetradeca-4(8),6-diene-7-carboxamide], `Cc1ccc(-n2nc(C(=O)NCc3ccccc3Cl)c3c2C2CC4CC(CC3C4)C2)cc1` [Example 162, N(7)-(2-Chlorobenzyl)-5-(4-methylphenyl)-5,6-diazatetracyclo[7.3.1.1^3,11.0^4,8]tetradeca-4(8),6-diene-7-carboxamide] is lower in “% Displacement Protocol II” value: 32.19% for the first, 9.52% for the second.

Compared with `O=C(NCc1c(F)cccc1F)c1nn(-c2ccc(Cl)cc2)c2c1C1CC3CC(C1)CC2C3` [Example 115, N(7)-(2,6-Difluorobenzyl)-5-(4-chlorophenyl)-5,6-diazatetracyclo[7.3.1.1^3,11.0^4,8]tetradeca-4(8),6-diene-7-carboxamide], `O=C(NNc1ccc(F)cc1F)c1nn(-c2ccc(Cl)cc2)c2c1C1CC3CC(C1)CC2C3` [Example 132, N(7)-(2,4-Difluorophenylamino]-5-(4-chlorophenyl)-5,6-diazatetracyclo[7.3.1.1^3,11.0^4,8]tetradeca-4(8),6-diene-7-carboxamide] is lower in “% Displacement Protocol II” value: 39.62% for the first, 16.09% for the second.

Compared with `C[C@H](NC(=O)c1nn(-c2ccc(Cl)cc2)c2c1C1CC3CC(C1)CC2C3)c1ccccc1` [Example 117], `CC(NC(=O)c1nn(-c2ccc(Cl)cc2)c2c1C1CC3CC(C1)CC2C3)c1ccccc1Cl` (stereo not drawn) [Example 138, N7-[1-(2-Chlorophenyl)ethyl]-5-(4-chlorophenyl)-5,6-diazatetracyclo[7.3.1.1^3,11.0^4,8]tetradeca-4(8),6-diene-7-carboxamide] is lower in “% Displacement Protocol II” value: 80.08% for the first, 79.4% for the second.

Compared with `O=C(NNc1ccccc1)c1nn(-c2ccc(Cl)cc2)c2c1C1CC3CC(C1)CC2C3` [Example 121, N(7)-(N′-phenylamino)-5-(4-chlorophenyl)-5,6-diazatetracyclo[7.3.1.1^3,11.0^4,8]tetradeca-4(8),6-diene-7-carboxamide], `O=C(NNc1ccc(F)cc1)c1nn(-c2ccc(Cl)cc2)c2c1C1CC3CC(C1)CC2C3` [Example 130, N(7)-(4-Fluorophenylamino)-5-(4-chlorophenyl)-5,6-diazatetracyclo[7.3.1.1^3,11.0^4,8]tetradeca-4(8),6-diene-7-carboxamide] is higher in “% Displacement Protocol II” value: 3.01% for the first, 12.32% for the second.

First: O=C(NNc1ncccc1Cl)c1nn(-c2ccc(Cl)cc2)c2c1C1CC3CC(C1)CC2C3 [Example 134, N(7)-(3-Chloro-2-pyridylamino)-5-(4-chlorophenyl)-5,6-diazatetracyclo[7.3.1.1^3,11.0^4,8]tetradeca-4(8),6-diene-7-carboxamide]
Second: O=C(NNc1ccc(Cl)cn1)c1nn(-c2ccc(Cl)cc2)c2c1C1CC3CC(C1)CC2C3 [Example 135, N(7)-(5-Chloro-2-pyridylamino)-5-(4-chlorophenyl)-5,6-diazatetracyclo[7.3.1.1^3,11.0^4,8]tetradeca-4(8),6-diene-7-carboxamide]
The “% Displacement Protocol II” value of the first is higher: 63.68% for the first, 10.05% for the second.

Going from `O=C(NN1CCCCC1)c1nn(-c2ccc(F)cc2F)c2c1C1CC3CC(C1)CC2C3` [Example 143, N(7)-Piperidino-5-(2,4-difluorophenyl)-5,6-diazatetracyclo[7.3.1.1^3,11.0^4,8]tetradeca-4(8),6-diene-7-carboxamide] to `COc1ccc(-n2nc(C(=O)NN3CCCCC3)c3c2C2CC4CC(CC3C4)C2)cc1` [Example 163, N(7)-Piperidino-5-(4-methoxyphenyl)-5,6-diazatetracyclo[7.3.1.1^3,11.0^4,8]tetradeca-4(8),6-diene-7-carboxamide], the “% Displacement Protocol II” value falls from 81.7% to 17.3%.

First: O=C(NCc1ccccc1Cl)c1nn(-c2ccc(F)cc2F)c2c1C1CC3CC(C1)CC2C3 [Example 149, N(7)-(2-Chlorobenzyl)-5-(2,4-difluorophenyl)-5,6-diazatetracyclo[7.3.1.1^3,11.0^4,8]tetradeca-4(8),6-diene-7-carboxamide]
Second: CC(NC(=O)c1nn(-c2ccc(F)cc2F)c2c1C1CC3CC(C1)CC2C3)c1ccccc1Cl (stereo not drawn) [Example 151, N(7)-[1-(2-Chlorophenyl)ethyl]-5-(2,4-difluorophenyl)-5,6-diazatetracyclo[7.3.1.1^3,11.0^4,8]tetradeca-4(8),6-diene-7-carboxamide]
The “% Displacement Protocol II” value of the first is lower: 82.67% for the first, 92.43% for the second.

Going from `O=C(NNc1ccc(Cl)cc1Cl)c1nn(-c2ccc(F)cc2F)c2c1C1CC3CC(C1)CC2C3` [Example 150, N(7)-(2,4-Dichlorophenylamino)-5-(2,4-difluorophenyl)-5,6-diazatetracyclo[7.3.1.1^3,11.0^4,8]tetradeca-4(8),6-diene-7-carboxamide] to `Cc1ccc(-n2nc(C(=O)NNc3ccc(Cl)cc3Cl)c3c2C2CC4CC(CC3C4)C2)cc1` [Example 161, N(7)-(2,4-Dichlorophenylamino)-5-(4-methylphenyl)-5,6-diazatetracyclo[7.3.1.1^3,11.0^4,8]tetradeca-4(8),6-diene-7-carboxamide], the “% Displacement Protocol II” value falls from 78.72% to 22.54%.

First: CC(C)(NC(=O)c1nn(-c2ccc(F)cc2F)c2c1C1CC3CC(C1)CC2C3)c1ccccc1Cl [Example 153, N7-[1-(2-Chlorophenyl)-1-methylethyl]-5-(2,4-difluorophenyl)-5,6-diazatetracyclo[7.3.1.1^3,11.0^4,8]tetradeca-4(8),6-diene-7-carboxamide]
Second: O=C(NNc1ccc(Cl)cc1Cl)c1nn(-c2ccccc2)c2c1C1CC3CC(C1)CC2C3 [Example 167, N(7)-[(2,4-Dichlorophenyl)amino]-5-phenyl-5,6-diazatetracyclo[7.3.1.1^3,11.0^4,8]tetradeca-4(8),6-diene-7-carboxamide]
The “% Displacement Protocol II” value of the first is higher: 96.92% for the first, 44.72% for the second.

Compared with `COc1ccc(-n2nc(C(=O)NCc3ccccc3Cl)c3c2C2CC4CC(CC3C4)C2)cc1` [Example 164, N7-(2-Chlorobenzyl)-5-(4-methoxyphenyl)-5,6-diazatetracyclo[7.3.1.1^3,11.0^4,8]tetradeca-4(8),6-diene-7-carboxamide], `COc1ccc(-n2nc(C(=O)NNc3ccc(Cl)cc3Cl)c3c2C2CC4CC(CC3C4)C2)cc1` [Example 165, N(7)-(2,4-Dichlorophenylamino)-5-(4-methoxyphenyl)-5,6-diazatetracyclo[7.3.1.1^3,11.0^4,8]tetradeca-4(8),6-diene-7-carboxamide] is lower in “% Displacement Protocol II” value: 19.15% for the first, 6.64% for the second.

Same assay, conditions: cell marked @1 / @ 1 μm

In the case of `CN(NC(=O)c1nn(-c2ccc(Cl)cc2)c2c1C1CC3CC(C1)CC2C3)C1CCCCC1` [Example 107, N(7)-(N-cyclohexyl-N-methylamino)-5-(4-chlorophenyl)-5,6-diazatetracyclo[7.3.1.1^3,11.0^4,8]tetradeca-4(8),6-diene-7-carboxamide], the “% Displacement Protocol II” value is reported as 82.49@1%.
In the case of `O=C(NNc1cccc(F)c1)c1nn(-c2ccc(Cl)cc2)c2c1C1CC3CC(C1)CC2C3` [Example 133, N(7)-(3-fluorophenylamino)-5-(4-chlorophenyl)-5,6-diazatetracyclo[7.3.1.1^3,11.0^4,8]tetradeca-4(8),6-diene-7-carboxamide], the “% Displacement Protocol II” value is reported as 65.9@1%.
